Reference: patent US8304419B2, “Chemical compounds” (priority 2007, dated 2012)

Legend:
Test in all cases: microbe, parasite or virus in culture
HIV-1 Y181C RT mutant = conditions: Human immunodeficiency virus 1, HeLa, read-out: Y181C activity level, HeLa-CD4-LTR-β-gal cells, Y181C virus
Description: (§1) The HeLa cell assay described herein is a modified version of Kimpton J. and Emerman M., Detection of replication-competent and pseudotyped human immunodeficiency virus with a sensitive cell line on the basis of activation of an integrated β-galactosidase gene, J. Virol. 66:2232-2239 (1992), in which HIV-1 infection is detected by the activation of an HIV-LTR driven β-galactosidase reporter that is integrated into the genome of a CD4+ HeLa cell line. Quantitation of β-galactosidase is achieved by measuring the activation of a chemiluminescent substrate (Applied Biosystems). The concentration of each compound required to inhibit 50% (IC50) of the HIV-1 induced β-galactosidase signal, relative to untreated controls, is determined for each isogenic, recombinant virus.
(§2) HeLa-CD4-LTR-β-gal cells are propagated in DMEM containing 10% fetal bovine serum+0.2 mg/ml geneticin+0.1 mg/ml hygromycin B. Cells are split by standard trypsinization when confluency reaches 80% (roughly every 2 to 3 days).
(§3) DNA encoding the HIV-1 reverse transcriptase is subcloned from a M13 phage into a general shuttle vector, pBCSK+, as a −1.65 kbp EcoRI/HindIII ended DNA fragment. The HIV DNA insert of the resulting plasmid, is completely sequenced on both strands prior to use in site directed mutagenesis experiments. Specific amino acid replacements are made using Stratagene Quick Change reagents and mutagenic oligonucleotides. The mutations that are made include K103N, V106A, Y181C, and Y188L. Following mutagenesis, the entire mutant RT coding sequence is verified by sequencing both DNA strands.
(§4) K103N, V106A, Y181C, and Y188L mutant HIV-1 strains and wild type strains are isolated by a modified Recombinant Virus Assay (Kellam P. and Larder B., Recombinant virus assay: a rapid, phenotypic assay for assessment of drug susceptibility of human immunodeficiency virus type 1 isolates, Antimicrobial Agents and Chemotherapy, 38:23-30, 1994). Ten million MT4 T-cells (maintained in RPMI containing 10% fetal bovine serum, split 1:5 every 5 to 6 days) are co-transfected with EcoRI/HindIII digested mutant RT plasmid and Bst EII-digested HIV-1HXB2ΔRT DNA in the presence of DMRIE-C transfection reagent (Gibco) according to supplier's recommended protocol. Each mutant RT coding sequence is crossed into the RT-deleted HIV-1 viral DNA backbone by in vivo homologous recombination. Transfected cell cultures are expanded and monitored until syncitia formation and CPE are extensive. Virus is harvested by clear spin of the culture supernatants, filtration of the supernatants through a 0.45 micron membrane and frozen at −80° C. as primary stocks. Recombinant progeny virus is sequenced in the RT region to confirm the mutant genotype. Some virus stocks require further expansion by infection of MT4 cells, harvested as above and stored as frozen aliquots. All stocks are titered in HeLa MAGI cells for assay.
(§5) HIV-1 virus stocks are titered in the HeLa-CD4-LTR-β-gal assay system to establish the appropriate infecting dose. The endpoint for this assay is relative light units (RLUs), and titer is recorded as RLUs/ml. Virus stocks are diluted (serial 1:2) into DMEM containing 10% FBS plus 25 ug/ml DEAE-dextran and assayed as described in the “Experimental Protocol” section below without test compound.
(§6) • 1. Seed 96-well plate(s) (Costar #3904) with HeLa-CD4-LTR-β-gal @ 3×10^3 cells per well in 100 ul DMEM containing 10% FBS. Incubate @ 37° C., 5% CO2 overnight. Day 2 • 1. Thaw virus stock in a water bath (room temperature) and dilute into DMEM+10% FBS+25 ug/ml DEAE-dextran to an infectious dose of approximately 10 million RLU/ml. The dilution of virus will vary depending on the titer of the stock (see “Titering of virus stocks” above). • 2. Remove all of the media from every well with an 8 or 12-channel manifold aspirator. Work with one plate at a time to prevent drying of the HeLa-CD4-LTR-β-gal monolayer. Add 35 ul (approximately 350,000 total RLUs) of diluted virus to each well. […]

HIV-1 V106A RT mutant = conditions: Human immunodeficiency virus 1, HeLa, read-out: V106A activity level, HeLa-CD4-LTR-β-gal cells, V106A virus
Description: as §1, §2, §3, §4, §5, §6

HIV-1 K103N RT mutant = conditions: Human immunodeficiency virus 1, HeLa, read-out: K103N activity level, HeLa-CD4-LTR-β-gal cells, K103N virus
Description: as §1, §2, §3, §4, §5, §6

## N#Cc1cc(Cl)cc(Oc2c(Cl)ccc(CNC(=O)c3cc4cc(OCC(CO)CO)ccc4[nH]3)c2F)c1 [Example 22, N-({4-chloro-3-[(3-chloro-5-cyanophenyl)oxy]-2-fluorophenyl}methyl)-5-{[3-hydroxy-2-(hydroxymethyl)propyl]oxy}-1H-indole-2-carboxamide]
HIV-1 Y181C RT mutant
  IC50: < 0.01 µM
HIV-1 V106A RT mutant
  IC50: 0.01 to 1 µM
HIV-1 K103N RT mutant
  IC50: < 0.01 µM

## CC(C)(C)OC(=O)N1CCO[C@@H](COc2ccc3[nH]c(C(=O)NCc4ccc(Cl)c(Oc5cc(Cl)cc(C#N)c5)c4F)cc3c2)C1 [Example 23, 1,1-dimethylethyl (2R)-2-{[(2-{[({4-chloro-3-[(3-chloro-5-cyanophenyl)oxy]-2-fluorophenyl}methyl)amino]carbonyl}-1H-indol-5-yl)oxy]methyl}-4-morpholinecarboxylate]
HIV-1 Y181C RT mutant
  IC50: 0.01 to 1 µM
HIV-1 V106A RT mutant
  IC50: 0.01 to 1 µM
HIV-1 K103N RT mutant
  IC50: 0.01 to 1 µM

## N#Cc1cc(Cl)cc(Oc2c(Cl)ccc(CNC(=O)c3cc4cc(OC[C@H]5CNCCO5)ccc4[nH]3)c2F)c1 [Example 24, N-({4-Chloro-3-[(3-chloro-5-cyanophenyl)oxy]-2-fluorophenyl}methyl)-5-{[(2R)-2-morpholinylmethyl]oxy}-indole-2-carboxamide]
HIV-1 Y181C RT mutant
  IC50: 0.01 to 1 µM
HIV-1 V106A RT mutant
  IC50: 0.01 to 1 µM
HIV-1 K103N RT mutant
  IC50: < 0.01 µM

## N#Cc1cc(Cl)cc(Oc2c(Cl)ccc(CNC(=O)c3cc4cc(O)ccc4[nH]3)c2F)c1 [Example 26, N-({4-chloro-3-[(3-chloro-5-cyanophenyl)oxy]-2-fluorophenyl}methyl)-5-hydroxy-1H-indole-2-carboxamide]
HIV-1 Y181C RT mutant
  IC50: < 0.01 µM
HIV-1 V106A RT mutant
  IC50: 0.01 to 1 µM
HIV-1 K103N RT mutant
  IC50: < 0.01 µM

## N#Cc1cc(Cl)cc(Oc2c(Cl)ccc(CNC(=O)c3cc4cc(OC(F)(F)F)ccc4[nH]3)c2F)c1 [Example 27, N-({4-chloro-3-[(3-chloro-5-cyanophenyl)oxy]-2-fluorophenyl}methyl)-5-[(trifluoromethyl)oxy]-1H-indole-2-carboxamide]
HIV-1 Y181C RT mutant
  IC50: 0.01 to 1 µM
HIV-1 V106A RT mutant
  IC50: 0.01 to 1 µM
HIV-1 K103N RT mutant
  IC50: 0.01 to 1 µM

## N#Cc1cc(Cl)cc(Oc2c(Cl)ccc(CNC(=O)c3cc4ccccc4[nH]3)c2F)c1 [Example 28, N-({4-chloro-3-[(3-chloro-5-cyanophenyl)oxy]-2-fluorophenyl}methyl)-1H-indole-2-carboxamide]
HIV-1 Y181C RT mutant
  IC50: 0.01 to 1 µM
HIV-1 V106A RT mutant
  IC50: 0.01 to 1 µM
HIV-1 K103N RT mutant
  IC50: 0.01 to 1 µM

## N#Cc1cc(Cl)cc(Oc2c(Cl)ccc(CNC(=O)c3cc4cc(Br)ccc4[nH]3)c2F)c1 [Example 29, 5-bromo-N-({4-chloro-3-[(3-chloro-5-cyanophenyl)oxy]-2-fluorophenyl}methyl)-1H-indole-2-carboxamide]
HIV-1 Y181C RT mutant
  IC50: 0.01 to 1 µM
HIV-1 V106A RT mutant
  IC50: 0.01 to 1 µM
HIV-1 K103N RT mutant
  IC50: 0.01 to 1 µM

## Cc1cc(Br)cc2cc(C(=O)NCc3ccc(Cl)c(Oc4cc(Cl)cc(C#N)c4)c3F)[nH]c12 [Example 30, 5-bromo-N-({4-chloro-3-[(3-chloro-5-cyanophenyl)oxy]-2-fluorophenyl}methyl)-7-methyl-1H-indole-2-carboxamide]
HIV-1 Y181C RT mutant
  IC50: > 1 µM
HIV-1 V106A RT mutant
  IC50: > 1 µM
HIV-1 K103N RT mutant
  IC50: 0.01 to 1 µM

## N#Cc1cc(Cl)cc(Oc2c(Cl)ccc(CNC(=O)c3cc4ccc([N+](=O)[O-])cc4[nH]3)c2F)c1 [Example 31, N-({4-chloro-3-[(3-chloro-5-cyanophenyl)oxy]-2-fluorophenyl}methyl)-6-nitro-1H-indole-2-carboxamide]
HIV-1 Y181C RT mutant
  IC50: 0.01 to 1 µM
HIV-1 V106A RT mutant
  IC50: 0.01 to 1 µM
HIV-1 K103N RT mutant
  IC50: 0.01 to 1 µM

## N#Cc1cc(Cl)cc(Oc2c(Cl)ccc(CNC(=O)c3cc4cccc(O)c4[nH]3)c2F)c1 [Example 32, N-({4-chloro-3-[(3-chloro-5-cyanophenyl)oxy]-2-fluorophenyl}methyl)-7-hydroxy-1H-indole-2-carboxamide]
HIV-1 Y181C RT mutant
  IC50: 0.01 to 1 µM
HIV-1 V106A RT mutant
  IC50: > 1 µM
HIV-1 K103N RT mutant
  IC50: 0.01 to 1 µM

## CS(=O)(=O)c1cc(F)cc2cc(C(=O)NCc3ccc(Cl)c(Oc4cc(Cl)cc(C#N)c4)c3F)[nH]c12 [Example 33, N-({4-chloro-3-[(3-chloro-5-cyanophenyl)oxy]-2-fluorophenyl}methyl)-5-fluoro-7-(methylsulfonyl)-1H-indole-2-carboxamide]
HIV-1 Y181C RT mutant
  IC50: 0.01 to 1 µM
HIV-1 V106A RT mutant
  IC50: > 1 µM
HIV-1 K103N RT mutant
  IC50: 0.01 to 1 µM

## COc1cccc2[nH]c(C(=O)NCc3ccc(Cl)c(Oc4cc(Cl)cc(C#N)c4)c3F)cc12 [Example 34, N-({4-chloro-3-[(3-chloro-5-cyanophenyl)oxy]-2-fluorophenyl}methyl)-4-(methyloxy)-1H-indole-2-carboxamide]
HIV-1 Y181C RT mutant
  IC50: 0.01 to 1 µM
HIV-1 V106A RT mutant
  IC50: 0.01 to 1 µM
HIV-1 K103N RT mutant
  IC50: 0.01 to 1 µM

## N#Cc1cc(Cl)cc(Oc2c(Cl)ccc(CNC(=O)c3nc4ccccc4[nH]3)c2F)c1 [Example 35, N-({4-chloro-3-[(3-chloro-5-cyanophenyl)oxy]-2-fluorophenyl}methyl)-1H-benzimidazole-2-carboxamide]
HIV-1 Y181C RT mutant
  IC50: 0.01 to 1 µM
HIV-1 V106A RT mutant
  IC50: 0.01 to 1 µM
HIV-1 K103N RT mutant
  IC50: 0.01 to 1 µM

## N#Cc1cc(Cl)cc(Oc2c(Cl)ccc(CNC(=O)c3cc4ccc(O)cc4[nH]3)c2F)c1 [Example 36, N-({4-chloro-3-[(3-chloro-5-cyanophenyl)oxy]-2-fluorophenyl}methyl)-6-hydroxy-1H-indole-2-carboxamide]
HIV-1 Y181C RT mutant
  IC50: < 0.01 µM
HIV-1 V106A RT mutant
  IC50: < 0.01 µM
HIV-1 K103N RT mutant
  IC50: < 0.01 µM

## N#Cc1cc(Cl)cc(Oc2c(Cl)ccc(CNC(=O)c3cc4cccc([N+](=O)[O-])c4[nH]3)c2F)c1 [Example 37, N-({4-chloro-3-[(3-chloro-5-cyanophenyl)oxy]-2-fluorophenyl}methyl)-7-nitro-1H-indole-2-carboxamide]
HIV-1 Y181C RT mutant
  IC50: > 1 µM
HIV-1 V106A RT mutant
  IC50: > 1 µM
HIV-1 K103N RT mutant
  IC50: 0.01 to 1 µM

## COc1ccc2[nH]c3c(c2c1)CCN(Cc1ccc(Cl)c(Oc2cc(Cl)cc(C#N)c2)c1F)C3=O [Example 38, 3-chloro-5-[(6-chloro-2-fluoro-3-{[6-(methyloxy)-1-oxo-1,3,4,9-tetrahydro-2H-β-carbolin-2-yl]methyl}phenyl)oxy]benzonitrile]
HIV-1 Y181C RT mutant
  IC50: 0.01 to 1 µM
HIV-1 V106A RT mutant
  IC50: 0.01 to 1 µM
HIV-1 K103N RT mutant
  IC50: 0.01 to 1 µM

## Cc1c(C(=O)NCc2ccc(Cl)c(Oc3cc(Cl)cc(C#N)c3)c2F)[nH]c2ccccc12 [Example 39, N-({4-chloro-3-[(3-chloro-5-cyanophenyl)oxy]-2-fluorophenyl}methyl)-3-methyl-1H-indole-2-carboxamide]
HIV-1 Y181C RT mutant
  IC50: 0.01 to 1 µM
HIV-1 V106A RT mutant
  IC50: 0.01 to 1 µM
HIV-1 K103N RT mutant
  IC50: 0.01 to 1 µM

## Cc1c(C(=O)NCc2ccc(Cl)c(Oc3cc(Cl)cc(C#N)c3)c2F)[nH]c2ccc(Cl)cc12 [Example 40, 5-chloro-N-({4-chloro-3-[(3-chloro-5-cyanophenyl)oxy]-2-fluorophenyl}methyl)-3-methyl-1H-indole-2-carboxamide]
HIV-1 Y181C RT mutant
  IC50: 0.01 to 1 µM
HIV-1 V106A RT mutant
  IC50: 0.01 to 1 µM
HIV-1 K103N RT mutant
  IC50: 0.01 to 1 µM

## N#Cc1cc(Cl)cc(Oc2c(Cl)ccc(CNC(=O)c3cc4cc(F)ccc4[nH]3)c2F)c1 [Example 41, N-({4-chloro-3-[(3-chloro-5-cyanophenyl)oxy]-2-fluorophenyl}methyl)-5-fluoro-1H-indole-2-carboxamide]
HIV-1 Y181C RT mutant
  IC50: 0.01 to 1 µM
HIV-1 V106A RT mutant
  IC50: > 1 µM
HIV-1 K103N RT mutant
  IC50: 0.01 to 1 µM

## COc1ccc(C(=O)NCc2ccc(Cl)c(Oc3cc(Cl)cc(C#N)c3)c2F)cn1 [Example 42, N-({4-chloro-3-[(3-chloro-5-cyanophenyl)oxy]-2-fluorophenyl}methyl)-6-(methyloxy)-3-pyridinecarboxamide]
HIV-1 Y181C RT mutant
  IC50: > 1 µM
HIV-1 V106A RT mutant
  IC50: > 1 µM
HIV-1 K103N RT mutant
  IC50: > 1 µM
